Among all 270,000 compounds or so, about 5,800 (2.1%) were called active. Inconclusive means that the source gave no clear call. Such entries were picked first, then a sample of the others. Calls follow the shape of the dose curve; as a rule, active = well fitted inhibition curve with a large enough effect; inconclusive = small, poorly fitted or top-dose-only effect; inactive = flat fitted curve, though single readings scatter. Where the call is inconclusive, the potency comes from a doubtful curve fit.
What follows are molecules tested against Microtubule-associated protein tau (Homo sapiens) (UniProt P10636) (assay: qHTS for Inhibitors of Tau Fibril Formation, Thioflavin T Binding). Conditions: recombinant tau K18 P301L (four-repeat tau fragment), heparin-induced fibrillization, ThT fluorescence; series mostly up to 57.4 µM; activity, negative = inhibition: at the top concentration.
Chain of UniProt P10636 (P10636 whole entry, looked up, the tested form may be a part): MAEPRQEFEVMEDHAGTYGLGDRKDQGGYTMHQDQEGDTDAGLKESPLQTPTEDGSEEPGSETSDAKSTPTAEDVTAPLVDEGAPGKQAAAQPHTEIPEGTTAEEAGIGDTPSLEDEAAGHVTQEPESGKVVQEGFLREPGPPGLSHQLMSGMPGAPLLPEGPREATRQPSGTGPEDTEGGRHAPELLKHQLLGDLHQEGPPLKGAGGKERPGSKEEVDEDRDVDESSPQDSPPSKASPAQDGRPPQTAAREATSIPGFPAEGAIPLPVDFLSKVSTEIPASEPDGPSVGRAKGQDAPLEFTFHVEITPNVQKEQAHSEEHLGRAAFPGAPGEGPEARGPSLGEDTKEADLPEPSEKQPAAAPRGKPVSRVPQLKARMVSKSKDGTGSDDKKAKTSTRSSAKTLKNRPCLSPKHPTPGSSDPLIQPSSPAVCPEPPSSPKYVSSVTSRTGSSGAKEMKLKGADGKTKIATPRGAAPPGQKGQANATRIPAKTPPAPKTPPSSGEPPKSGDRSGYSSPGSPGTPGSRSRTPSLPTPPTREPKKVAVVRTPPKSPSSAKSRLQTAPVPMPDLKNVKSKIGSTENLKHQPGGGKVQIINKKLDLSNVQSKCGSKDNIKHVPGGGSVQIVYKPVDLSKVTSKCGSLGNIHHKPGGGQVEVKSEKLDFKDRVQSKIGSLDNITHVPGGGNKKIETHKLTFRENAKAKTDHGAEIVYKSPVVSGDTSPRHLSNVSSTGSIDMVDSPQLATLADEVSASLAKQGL
Summary of the method: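 K18 P301L tau (15 uM + 0.24 uM Alexa 594-tagged), heparin 20 uM, NaOAc pH 7, 6 h 37 C; ThT 30 uM, 1 h RT, ex 450/em 510 nm.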
% is scaled to controls: 0 for no effect and ±100 for the full control effect; potency is read from the fitted curve at half-maximal effect; tags tell the direction and shape of the fitted curve.
Also: nearly all actives have a fitted effect of over 55% in size.

Row | SMILES | Potency | activity, negative = inhibition
1 | O=C(CN1CCN(c2nc(-c3ccc(Cl)cc3)cs2)CC1)NCc1ccco1 | inconclusive: 31.6 µM [inhibitor, partial curve] | –
2 | C=CCNC(=O)COc1ccc(Br)cc1Cl | – | inactive: 1.7%
3 | CCCc1ccc(-c2cc(C(=O)NCCc3ccc(S(N)(=O)=O)cc3)c3ccccc3n2)cc1 | – | inactive: 8.97%
4 | CCCC1OC2CC3C4CCC5=CC(=O)C=CC5(C)C4C(O)CC3(C)[C@]2(C(=O)CO)O1 (stereo partly specified) | – | inactive: 2.76%
5 | Cc1cc(-c2n[nH]c(=S)n2/N=C/C(Cl)=C/c2ccccc2)n[nH]1 | inconclusive: 17.8 µM [inhibitor, partial curve] | –
6 | Cc1nc2ccc(NC(=O)COc3ccccc3[N+](=O)[O-])cc2s1 | inconclusive: 3.55 µM [inhibitor, full curve] | –
7 | Cc1c(Cl)cccc1-n1nnc(-c2nc(-c3ccc4c(c3)OCO4)no2)c1C | – | inactive: 3.99%
8 | COc1cccc(NC2=CC(c3ccc(C(C)C)cc3)N(c3cccc(OC)c3)C2=O)c1 (stereo unspecified) | inconclusive: 12.6 µM [inhibitor, partial curve] | –
9 | O=S(=O)(c1ccc(-c2ccon2)s1)N1CCN(CCN2CCOCC2)CC1 | inconclusive: 17.8 µM [inhibitor, partial curve, poor fit] | –
10 | N#CC1(C#N)CC(C=O)=C(N)C1(C#N)CC(=O)c1ccc(F)cc1 (stereo unspecified) | active: 14.1 µM | –
11 | C=CCn1c(-c2cc3cccc(OC)c3o2)n[nH]c1=S | inconclusive: 4.47 µM [inhibitor, partial curve] | –
12 | O=C(Cn1cc(SCc2ccc(Cl)cc2)c2ccccc21)N1CCCC1 | inconclusive: 10 µM [inhibitor, partial curve] | –
13 | O=c1[nH][nH]cc1C=Nc1ccccc1Cl | – | inactive: -2.78%
14 | C=CCn1c(-c2ccco2)n[nH]c1=S | inconclusive: 35.5 µM [inhibitor, single point] | –
15 | Cn1c(=O)[nH]c2nnc(-c3ccc(Cl)c(Cl)c3)nc2c1=O | active: 15.8 µM | –
16 | C=C1C(C2(C)C=CC(=O)C(C)(C)C2CC(=O)OC)CC[C@@]2(C)C(c3ccoc3)OC(=O)C3OC132 (stereo partly specified) | – | inactive: -12.5%
17 | CCOC(=O)c1cc(-c2ccc(Cl)cc2)nc2c1c(C)nn2CCC#N | – | inactive: -19%
18 | CCC(C)NC(=O)c1[nH]c2cc(OC)ccc2c1Sc1ccc(C)cc1 (stereo unspecified) | – | inactive: -10.8%
19 | Cc1ccc(N=Nc2c(N)[nH]n3c(=O)c4c(nc23)CCCC4)cc1 | active: 1.41 µM | –
20 | O=S(=O)(N/N=C\c1ccc2c(c1)OCO2)c1ccc(Cl)cc1 | – | inactive: -3.33%
21 | CCOC(=O)C1CCN(C(=O)c2cc3ccc4ccc(C)[nH]c4c3n2)CC1 | inconclusive: 10 µM [inhibitor, partial curve] | –
22 | COc1ccc(-c2nn3c(COc4ccccc4)nnc3s2)cc1OC | – | inactive: -13.3%
23 | Clc1cccc(OCc2nc(-c3ccncc3)no2)c1 | inconclusive: 35.5 µM [inhibitor, single point] | –

Row | SMILES | Potency | activity, negative = inhibition
24 | O=C(/C=C/c1cccs1)c1ccc(Br)cc1 | inconclusive: 20 µM [inhibitor, partial curve] | –
25 | CC(C)Cc1nnc(NC(=O)CSc2nc(O)c(Cc3ccccc3)c(=O)[nH]2)s1 | inconclusive: 31.6 µM [inhibitor, single point] | –
26 | CCOC(=O)c1c(NC(=S)Nc2ccccc2)sc2c1CCN(CCc1ccccc1)C2 | inconclusive: 28.2 µM [inhibitor, partial curve] | –
27 | CC(C)c1cc(N2CCN(C(=O)c3ccco3)CC2)n2c(nc3ccccc32)c1C#N | inconclusive: 31.6 µM [inhibitor, partial curve] | –
28 | CC1(C)Cc2cccc(OCC(=O)N3CCN(S(=O)(=O)c4ccc(F)cc4)CC3)c2O1 | – | inactive: -4.16%
29 | CCOC(=O)c1c(C)[nH]c(N=Nc2ccc(C)cc2C)c1C | active: 6.31 µM | –
30 | O=C(/C=C/c1ccc(-c2ccccc2[N+](=O)[O-])o1)c1ccc(Br)cc1 | active: 7.94 µM | –
31 | O=C(Nc1ccc(Cl)cc1)C1CCN(S(=O)(=O)c2ccc(Br)s2)CC1 | – | inactive: 14.8%
32 | C=C1C2CC[C@@]3(C)C(c4ccoc4)OC(=O)C[C@@]13OC1CC(OC(C)=O)C(C)(C)C(CC(=O)OC)[C@@]12C (stereo partly specified) | inconclusive: 39.8 µM [inhibitor, single point] | –
33 | COc1ccccc1C1CC(=O)Oc2c(C(C)C)ccc(C)c21 (stereo unspecified) | inconclusive: 28.2 µM [inhibitor, partial curve] | –
34 | CC(/C=C/c1ccco1)=N/NC(=O)Cc1cccs1 | inconclusive: 22.4 µM [inhibitor, partial curve] | –
35 | COc1ccc(Cc2nc(C(=O)Nc3ccc(F)cc3)cs2)cc1 | inconclusive: 10 µM [inhibitor, partial curve] | –
36 | CCS(=O)(=O)c1ncc(N(Cc2cccc(F)c2)Cc2ccco2)c(C(=O)Nc2ccccc2Cl)n1 | – | inactive: 6.36%
37 | O=C(c1ccc(F)cc1)N1CCN(c2cc(N3CCCCC3)c(F)cc2[N+](=O)[O-])CC1 | inconclusive: 25.1 µM [inhibitor, partial curve] | –
38 | CCOC(=O)c1[nH]c2ccccc2c1NC(=S)Nc1ccccc1C | inconclusive: 39.8 µM [inhibitor, single point] | –
39 | O=C(/C=C/c1ccc(O)cc1)c1ccccc1O | active: 17.8 µM | –
40 | CCOc1cc(/C=C\c2[nH]c(=O)[nH]c(=O)c2[N+](=O)[O-])ccc1OC(C)CC (stereo unspecified) | inconclusive: 25.1 µM [inhibitor, partial curve] | –
41 | COc1ccc(NC(=O)CN2C(=O)CC(c3ccco3)Sc3ccccc32)cc1OC (stereo unspecified) | – | inactive: -7.14%
42 | CN1CCN(C(=O)c2ccc(Cl)c(S(=O)(=O)N3CCCCC3)c2)CC1 | – | inactive: -6.17%
43 | NCC1O[C@@H](O[C@@H]2C(O)[C@H](O[C@H]3OC(CO)C(O)C(N)C3O)[C@@H](N)C[C@H]2N)C(N)C(O)C1O (stereo partly specified) | – | inactive: 6.77%
44 | CCOC(=O)c1c(C)[nH]c(C=O)c1Cc1cccc(Cl)c1 | – | inactive: -16.5%
45 | O=C1CCN(CCc2ccccc2)CCN1CCSc1ccc(Br)cc1 | inconclusive: 4.47 µM [inhibitor, full curve, poor fit] | –
46 | COc1ccc(C(=O)N/C(N)=N/c2nc3ccccc3o2)cc1 | inconclusive: 2.24 µM [inhibitor, full curve, poor fit] | –

Reference: PubChem BioAssay AID1460 (National Center for Advancing Translational Sciences (NCATS), 2008)
